# Results published in PubChem BioAssay AID686978 (National Center for Advancing Translational Sciences (NCATS), 2013).
# Among all 420,000 compounds or so, about 64,000 (15%) were called active. Inconclusive means that the source gave no clear call. Such entries were picked first, then a sample of the others. Calls come from the whole dose curve; as a rule, active = well fitted inhibition curve with a large enough effect; inconclusive = small, poorly fitted or top-dose-only effect; inactive = flat fitted curve, though single readings scatter. No potency is given beside an inconclusive call; the fits are too rough.
# Experiment: qHTS for Inhibitors of human tyrosyl-DNA phosphodiesterase 1 (TDP1): qHTS in cells in absence of CPT; note: nearly all actives have a fitted effect of over 55% in size
# Conditions: DT40 Tdp1-/- hTDP1 cells, no CPT, ATP luminescence, 48 h; activity change, negative = growth inhibition: at 46.2 µM (top of the series) unless noted
# Procedure, shortened: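 Luminescent ATP content (CellTiter-Glo) served as the growth readout. Knockout chicken DT40 cells expressing human TDP1 were exposed to compounds without camptothecin for a minimum 48 hr at 37 °C.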
# % is set by controls: 0 for no effect and ±100 for the full control effect; potency is the fitted concentration of half-maximal effect; tags give direction and shape of the fitted curve.
Compound,Potency,"activity change, negative = growth inhibition"
COc1ccc(Cn2c(SCc3ccc(C(=O)NCCc4ccccc4)cc3)nc3cccnc32)cc1,"inconclusive [inhibitor, partial curve]",–
COc1cccc(NC(=O)Cc2nnc(SCC(=O)NC3=NCCS3)n2C)c1,"inconclusive [inhibitor, single point]",–
Cc1cc(C)c(OCC(=O)OC(C)C(=O)N2CCc3ccccc32)c(C)c1 (stereo not given),–,inactive: -10.2%
Cc1ccccc1CN1CCC(Oc2ccc(C(=O)N3CCCC3)cc2)CC1,–,inactive: -14.6%
CC(=O)N1CCC[C@@]2(CCN(C(=O)Nc3cccc(C#N)c3)C2)C1,–,inactive: 20.7%
COCCN(C(=S)Nc1c(C)cc(C)cc1C)C(C)c1cccs1 (stereo not given),active: 29.1 µM,–
CC(NC(=O)C1CCCCC1)C(c1cccs1)N1CCOCC1 (stereo not given),–,inactive: -1.08%
COC(=O)[C@@]12C[C@@H](CC(=O)NCC3CCCCC3)C(=O)N(Cc3ccco3)C1=CCC(C)(C)C2,"inconclusive [inhibitor, single point]",–
COC(=O)c1ccccc1S(=O)(=O)N1CCC(C(=O)Nc2ccccc2N2CCOCC2)CC1,–,inconclusive: -30.3% [inhibitor]
CC(C)(C)c1ccc(S(=O)(=O)N2CCN(CCC#N)CC2)cc1,–,inactive: -16.7%
Cc1ccccc1-n1c(-c2ccoc2C)n[nH]c1=S,"inconclusive [inhibitor, single point]",–
CCOC(=O)c1c(C)nc2sc3c(=O)n(-c4ccc(C(C)=O)cc4)cnc3c2c1-c1ccc(OC)cc1,active: 16.4 µM,–
COc1cc2nc(SCC(=O)c3ccc(Br)cc3)n3nc(C)nc3c2cc1OC,"inconclusive [inhibitor, partial curve, poor fit]",–
CCCN1CCN(CCCNC(=O)Cn2c(-c3cccs3)cc3ccccc32)CC1,"inconclusive [inhibitor, single point]",–
Clc1ccc(SCCOCCN2CCCCCC2)cc1,"inconclusive [inhibitor, single point]",–
CCOC(=O)[C@]12CCC=C1N(Cc1ccccc1)C(=O)[C@H](CC(=O)NCc1cccc3ccccc13)C2,"inconclusive [inhibitor, single point]",–
O=C(N/N=C\c1ccc(Cl)cc1)C1=NOC2COC3(CCN(c4ccc([N+](=O)[O-])cc4)CC3)OCC12 (stereo not given),active: 6.51 µM,–
COCCNC(=O)C1C(=O)Nc2ccccc2C(=O)N1Cc1ccccc1 (stereo not given),–,inactive: -4.86%
CNC(=O)c1cccc(NC(=O)C(C)c2ccc3cc(OC)ccc3c2)c1 (stereo not given),"inconclusive [inhibitor, single point]",–
COc1ccc(N2CCN(S(=O)(=O)c3c(C)[nH]c(C)c3C(=O)N3CCCC3)CC2)cc1,–,inactive: 11%
O=C(Nc1cccc2cccnc12)c1ccccc1Br,"inconclusive [inhibitor, single point]",–
C=CCN(c1ccccc1)S(=O)(=O)c1cccc(C(=O)NNC(=O)c2ccncc2)c1,"inconclusive [inhibitor, partial curve]",–
CCN(C(=O)COC(=O)c1ccccc1NC(=O)c1ccco1)C1CCS(=O)(=O)C1 (stereo not given),–,inconclusive: -20.6% [inhibitor]

Compound,Potency,"activity change, negative = growth inhibition"
Cc1cccc(C(=O)Nc2cccnc2Cl)c1,"inconclusive [inhibitor, single point]",–
COc1ccc(O)c(/C=N/NC(=O)c2cc(=O)[nH]c3ccccc23)c1,"inconclusive [inhibitor, single point]",–
CCn1cc(S(=O)(=O)c2ccc(C)cc2)c(=O)c2cc(F)c(N3CCCCCC3)cc21,active: 18.4 µM,–
CCOC(=O)c1[nH]c(C)c(CCC(=O)NCc2ccccc2C)c1C,–,inactive: -8.09%
CC(C)NC(=O)c1ccc(CONC(=O)OCc2ccccc2)cc1,"inconclusive [inhibitor, single point]",–
CCN(C(=O)c1ccc(S(=O)(=O)N2CCC(C)CC2)cc1)C1CCS(=O)(=O)C1 (stereo not given),–,inactive: -11.4%
CC1Cc2ccccc2N1C(=O)CSc1ncccn1 (stereo not given),–,inactive: -20.5%
Cc1cccc(N2CCN(S(=O)(=O)c3ccc(F)c(C(=O)Nc4ccc(C(C)C)cc4)c3)CC2)c1C,"inconclusive [inhibitor, single point]",–
Cc1ccc(C)c(NC(=O)CSc2nc(=O)n(Cc3ccccn3)c3c2CCC3)c1,"inconclusive [inhibitor, single point]",–
C#CCOCCOCCOCCNc1nc(N2CCN(C(=O)CCCCCCCCCCNC(=O)[C@H](CCCCN)n3cc(CCO)nn3)CC2)nc(N2CCN(C(=O)CCCCCCCCCCNC(=O)[C@H](CCCCN)n3cc(CCO)nn3)CC2)n1,"inconclusive [inhibitor, full curve, poor fit]",–
NC(=O)C1CCN(C(=O)c2ccc3c(c2)S(=O)(=O)c2ccccc2C3=O)CC1,–,inactive: 0.501%
CCN(CC)C(CNC(=O)CSc1nnnn1-c1c(C)cccc1C)c1ccco1 (stereo not given),"inconclusive [inhibitor, single point]",–
Cc1ccccc1S(=O)(=O)N1CCN(c2ccc3c(c2)C2CC3CCN2C(=O)OCc2ccccc2)CC1 (stereo not given),active: 16.4 µM,–
CCc1ccc(Nc2ccc(S(=O)(=O)N3CCOCC3)cc2[N+](=O)[O-])cc1,"inconclusive [inhibitor, partial curve]",–
CCc1nnc2n1N=C(c1ccc(Br)cc1)CS2,–,inactive: -11.9%
COc1ccc(-c2noc(CN3CCN(c4cccc(Cl)c4)CC3)n2)cc1,"inconclusive [inhibitor, single point]",–
CC1CCN(C(=O)c2ccc(S(=O)(=O)N3CCCCCC3)cc2)CC1,–,inconclusive: -35.5% [inhibitor]
COC(=O)Oc1ccc(/C=N/NC(=O)CSCc2ccccc2Br)cc1OC,active: 14.6 µM,–
CCOC(=O)c1cc2ccccc2nc1C,–,inactive: -9.4%
c1ccc(CNc2c3c(nc4ncnn24)CCC3)cc1,–,inactive: -27.2%
Cc1csc(SCC(=O)Nc2nc(-c3ccccc3)cs2)n1,"inconclusive [inhibitor, single point]",–
COc1ccc(CC2(C)OC(c3ccc(Cl)cc3)=NN2C(C)=O)cc1 (stereo not given),"inconclusive [inhibitor, single point]",–
